Screen size: about 310,000 compounds; about 2,200 (0.71%) showed an effect of 50% or more. Effects have a minus sign here. This is one part of the list.
Target: human ether-à-go-go-related gene (hERG) potassium channel (human, UniProt Q12809)
Test: primary screen, population patch clamp on CHO cells stably expressing hERG

human ether-à-go-go-related gene (hERG) potassium channel, sequence (Q12809 whole entry, looked up): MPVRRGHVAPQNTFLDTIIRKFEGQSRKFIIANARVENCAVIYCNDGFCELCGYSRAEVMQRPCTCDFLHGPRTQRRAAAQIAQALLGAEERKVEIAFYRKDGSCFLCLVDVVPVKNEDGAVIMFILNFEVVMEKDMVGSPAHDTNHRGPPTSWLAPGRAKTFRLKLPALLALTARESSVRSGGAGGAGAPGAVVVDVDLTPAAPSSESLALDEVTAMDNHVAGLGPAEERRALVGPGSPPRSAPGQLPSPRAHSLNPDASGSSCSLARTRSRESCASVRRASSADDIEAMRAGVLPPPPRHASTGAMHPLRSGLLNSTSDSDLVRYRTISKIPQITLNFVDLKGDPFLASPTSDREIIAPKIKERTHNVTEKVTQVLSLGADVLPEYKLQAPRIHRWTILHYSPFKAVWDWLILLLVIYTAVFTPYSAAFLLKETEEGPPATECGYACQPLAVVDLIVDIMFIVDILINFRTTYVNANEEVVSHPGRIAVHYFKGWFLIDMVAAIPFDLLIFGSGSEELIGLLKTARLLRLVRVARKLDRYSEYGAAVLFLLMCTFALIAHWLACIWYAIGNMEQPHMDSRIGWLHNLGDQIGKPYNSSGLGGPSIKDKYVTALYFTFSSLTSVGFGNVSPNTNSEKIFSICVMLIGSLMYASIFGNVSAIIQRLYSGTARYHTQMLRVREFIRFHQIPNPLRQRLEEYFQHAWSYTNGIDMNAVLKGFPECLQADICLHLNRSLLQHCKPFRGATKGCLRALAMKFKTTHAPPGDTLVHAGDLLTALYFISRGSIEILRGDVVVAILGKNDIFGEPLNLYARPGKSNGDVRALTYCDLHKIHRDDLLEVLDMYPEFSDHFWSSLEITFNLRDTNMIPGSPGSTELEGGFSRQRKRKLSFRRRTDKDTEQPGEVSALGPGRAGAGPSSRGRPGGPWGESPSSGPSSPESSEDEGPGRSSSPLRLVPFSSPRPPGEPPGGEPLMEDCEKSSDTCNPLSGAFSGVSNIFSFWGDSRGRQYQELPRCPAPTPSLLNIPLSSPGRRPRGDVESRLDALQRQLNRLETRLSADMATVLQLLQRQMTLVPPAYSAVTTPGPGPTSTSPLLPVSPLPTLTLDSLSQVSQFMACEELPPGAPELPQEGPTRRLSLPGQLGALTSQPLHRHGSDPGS

Compound	hERG current change (%, negative = inhibition) at 1uM [%]
COc1ccc(Cl)cc1NC(=O)CCN1CCN(c2ccccc2C)CC1	9.59
COc1ccccc1CNc1cncnc1	13.6
CCn1c(=S)sc2c(=O)n(-c3ccccc3)c(SC)nc21	9.01
CCn1c(=N)c(C(=O)NCCCOC)cc2c(=O)n3cccc(C)c3nc21	-47
CCN1C(=O)[C@H]2[C@@H](c3ccc(Cl)cc3)N3C(=O)CN(Cc4ccccc4)C(=O)[C@@]3(C)[C@H]2C1=O	10.9
O=C(N/N=C/c1ccsc1)c1cc(O)cc(O)c1	10.2
O=S1(=O)NC2c3ccccc3CC2O1 (stereo not shown)	14.5
Cc1ccc(S(=O)(=O)N2CCC(NC(=O)c3ccccc3)CC2)cc1	-0.351
O=C(Nc1ccc2ncccc2c1)c1ccccc1Cl	6.96
CCOC(=O)C1C2C=CC3(CN(c4ccccc4CC)C(=O)C13)O2 (stereo not shown)	9
CCCS(=O)(=O)N1CCCC(C(=O)Oc2ccc(OC)cc2)C1 (stereo not shown)	17.6
Cc1ccc(NC(=O)CCC(=O)c2cccs2)c(Br)c1	12.5
CCCc1[nH]nc2c1C(c1cc(OC)cc(OC)c1)C(C#N)=C(N)O2 (stereo not shown)	-2.26
CC1CCN(CCOc2ccc(OCc3ccccc3)cc2)CC1.O=C(O)C(=O)O	-9
O=C(CN1C(=O)/C(=C\c2cccc(Br)c2)Oc2ccccc21)NCC1CCCO1 (stereo not shown)	17.8
C=CCN1CN(Cc2ccco2)CNC1=S	-3.72
CCOC(=O)N1CCC(NC(=O)Cc2ccccc2)CC1	15.5
CC(=O)c1ccc(NC(=O)COC(=O)c2ccc(F)cc2F)cc1	14.1
Cc1ccc(C(=O)c2ccc(C(F)(F)F)cc2)cc1	6.9
COC(=O)c1cc2c(cc1Cl)N1CCCCCC1=NS2(=O)=O	10
O=C(Nc1ccccc1N1CCCCC1)c1ccccc1F	-5.76
CCCCCCOc1ccc(N2C(=O)CC(N(CCc3ccc(S(N)(=O)=O)cc3)C(C)=O)C2=O)cc1 (stereo not shown)	16.7
COc1ccc2[nH]c(=O)c(CNc3cc(C)ccc3C)cc2c1	7.72

Compound	hERG current change (%, negative = inhibition) at 1uM [%]
O=C(CSc1ncccn1)N/N=C/c1cccc(OC2CSC2)c1	13.5
COc1ccc(/C=C2/CCc3ccccc3C2=O)cc1CN1CCOCC1	-6.64
CSc1nnc(-c2ccc(NC(=O)CCc3ccccc3)cc2)n1C	8.84
CCC1Oc2ccccc2N(CC(=O)NC2CC2)C1=O (stereo not shown)	15.5
COc1ccc(CCNC(=O)C2CCN(S(=O)(=O)N3CCCCC3)CC2)cc1OC	4.52
O=C(NCC(c1ccco1)N1CCCCC1)C(c1ccccc1)c1ccccc1 (stereo not shown)	-4.9
CCCc1cc(=O)oc2cc3occ(C)c3cc12	6.79
C[C@H](NC(=O)[C@@H]1CSC2c3ccccc3C(=O)N21)C(=O)NCCc1ccc(F)cc1 (stereo partly shown)	14.8
CCOC1OC(=O)C(Cl)=C1Nc1cc(C)ccc1C (stereo not shown)	14.3
O=C(CN(C(=O)c1csnn1)c1ccc(F)c(Cl)c1)NC1CCCC1	6.49
COC(=O)c1sccc1NC(=O)CSCC(=O)O	8.36
CCN(CC)S(=O)(=O)c1cccc(-c2n[nH]c(=S)n2Cc2ccccc2)c1	12.4
O=C(Cc1ccccc1)NCCc1cnc[nH]1	10.2
Cc1cc(C)n2nc(SCC(=O)N(CCC#N)c3ccccc3F)nc2n1	8.64
O=C(O)CC12C[C@H]3C[C@@H](C1)CC(n1ncc(N4CCN(c5ccccc5)CC4)c(Cl)c1=O)(C3)C2	10.8
Cc1cccc(NC(=O)Nc2ccc3c(c2)OCO3)n1	15.6
O=C(NC1(C(F)(F)F)N=C2SCCN2C1=O)c1ccco1 (stereo not shown)	5.46
CN(C(=O)CSc1nnc(COc2ccccc2F)n1N)C1CCCCC1	7.85
COc1ccc(C)cc1NS(=O)(=O)c1ccc2c(c1)CCN2C(C)=O	9.16
CCOC(=O)c1c(NC(=O)Cc2ccccc2)sc2c1CCN(C)C2.Cl	-19.2
CC(C)CC(=O)Nc1ccc2c(c1)OCO2	14.6
Br.CCOC(=O)Cn1c(=N)n(Cc2ccccc2)c2ccccc21	-13.2
COc1ccccc1-n1c(/C=C/c2ccc(O)cc2)nc2ccccc2c1=O	13

Compound	hERG current change (%, negative = inhibition) at 1uM [%]
COc1ccc(OC)c(NC(=O)C2C3C=CC(C3)C2C(=O)NCc2cccnc2)c1 (stereo not shown)	11.4
COCCn1c(SCC(=O)NCc2ccco2)nc2cccnc21	17.6
CN1CCN(c2sc(S(C)(=O)=O)nc2S(=O)(=O)c2ccc(Cl)cc2)CC1	4.58
O=C(O)c1ccccc1C(=O)Nc1ccc(S(=O)(=O)Nc2ccc(F)cc2)cc1	16.5
CCN(CC)S(=O)(=O)c1ccc(N2CC(C(=O)NCCC3=CCCCC3)CC2=O)cc1 (stereo not shown)	6.97
Cc1ccc(C(=O)N2CCOCC2)cc1[N+](=O)[O-]	12.7
CCOc1ccc(NC(=O)CCN2CCN(S(=O)(=O)c3cc(Cl)ccc3OC)CC2)cc1	6.07
C=CCc1ccccc1OCC(O)CNC(=O)c1ccccc1C(=O)O (stereo not shown)	11.4
NS(=O)(=O)c1ccc2nc(NC(=O)C3CCCO3)sc2c1 (stereo not shown)	11.5
Cc1cccc(C)c1Nc1nnc(SCC(=O)Nc2ncc(C(F)(F)F)cc2Cl)s1	1.78
Cc1cc(Cl)c(OCCCSc2nc(C)cc(=O)[nH]2)c(Br)c1	-7.47
Cl.NS(=O)(=O)c1ccc(CCNCc2cc(Br)ccc2OCc2ccccc2F)cc1	-37.4
Nc1n[nH]c(-c2ccccc2)c1-c1ccccc1	0.625
O=C(NCC1CCCO1)c1ccccc1-c1nc(-c2ccccc2Cl)no1 (stereo not shown)	7.26
O=C(CNC(=O)C1COc2ccccc2O1)N/N=C/c1cc(Br)c(O)c(Br)c1 (stereo not shown)	9.48
Cc1ccc(NC(=S)NCC(C)C)cc1	13.7
CC(=O)c1cccc(NC(=S)N2CCN(S(C)(=O)=O)CC2)c1	12.8
Cc1nc(SCC(=O)Nc2ccc(N3CCOCC3)cc2)nc(C)c1C	3.35
Cc1cccnc1NC(=O)c1ccc(Cl)c(S(=O)(=O)N2CCCCC2)c1	-0.63
O=C(CN1CCCC1)Nc1cccc(Cl)c1Cl	13
Cc1[nH]n(-c2ccccc2)c(=O)c1-c1ccccc1	2.64
CC(C)(C)C1=Nn2c(nnc2-c2ccccn2)SC1	0.753
CCOC(=O)C1CCN(S(=O)(=O)c2cccc(-c3cn4cc(Cl)ccc4n3)c2)CC1	-17.9

Compound	hERG current change (%, negative = inhibition) at 1uM [%]
Cc1cc(C)n(CC(=O)NC2CCCc3c2cnn3-c2ccc(C)c(C)c2)n1 (stereo not shown)	1.12
CCOCC(=O)Nc1ccc(S(=O)(=O)NCC2CCCO2)cc1 (stereo not shown)	15.5
CCC1(CC)NC(=O)N(CC(=O)OCC(=O)NC(=O)c2ccccc2)C1=O	8.15
C=CCCC(=O)N1CCCC(Cc2cccc(Cl)c2)(C(=O)OCC)C1 (stereo not shown)	17
COc1ccccc1-n1ccnc(SCC(=O)NC2CCCC2)c1=O	10.1
N#CCCn1c2ccccc2c2nc3ccccc3nc21	10.3
COc1ccc(NC(=O)c2nn(C)c3c2CS(=O)(=O)c2ccccc2-3)cc1	15.9
CSc1ncccc1C(=O)OCC(=O)N1CCN(S(=O)(=O)c2ccc(C)cc2C)CC1	18.2
CC1CCc2sc(C(=O)NCC(c3ccco3)N3CCCCC3)cc2C1 (stereo not shown)	6.47
CC(C)C(C(=O)NCC1CCCO1)N(CC1CCCO1)C(=O)CNS(=O)(=O)c1ccccc1 (stereo not shown)	20.6
Cc1occc1-c1nnc(SCC(N)=O)n1Cc1ccccc1	4.3
Cc1ccc2nc(NCCCO)nc(-c3ccccc3)c2c1	-2.03
O=C(Nc1ccccc1NC(=O)NC1CCCCC1)NC1CCCCC1	1.34
Cc1cccc(NC(=O)CSc2nnc(CCNC(=O)OC(C)(C)C)o2)c1C	13.1
CC(C)OCCCn1c(SCC(=O)Nc2ccccc2C(F)(F)F)nc2nccnc2c1=O	17
CC(C)CCNC(=O)c1cc([N+](=O)[O-])ccc1N1CCOCC1	3.19
CC(=O)Nc1ccc(S(=O)(=O)N2CCSC2c2ccc(Cl)cc2)cc1 (stereo not shown)	7.19
Cc1ccc(S(=O)(=O)N2CCCCC2)cc1C(=O)NCC1CCCO1 (stereo not shown)	6.66
COc1ccccc1-c1nn2c(=O)cc(C)nc2s1	11.1
CC(C(=O)NC1CCS(=O)(=O)C1)N1C(=O)/C(=C/c2ccc(Cl)cc2)SC1=S (stereo not shown)	15.6
C[N+]1(CC(O)COCC2COc3ccccc3O2)CCOCC1.[I-] (stereo not shown)	11.8
Cc1cc(S(=O)(=O)Cc2noc(-c3c(C)noc3C)n2)c(C)cc1Cl	5.81
